Measured values as given in PubChem BioAssay (NCATS).
This list was built around the results that the source calls inconclusive (neither active nor inactive); the mix of calls is not that of the screen. Potencies of inconclusive entries are left out as doubtful fits. Active and inactive are the calls of the source. Calls follow the shape of the dose curve; as a rule, active = well fitted inhibition curve with a large enough effect; inconclusive = small, poorly fitted or top-dose-only effect; inactive = flat fitted curve, though single readings scatter.
% is scaled to controls: 0 for no effect and ±100 for the full control effect; potency is read from the fitted curve at half-maximal effect; tags tell the direction and shape of the fitted curve.

The compounds below were run against Dual specificity protein kinase CLK4 (Homo sapiens) (UniProt Q9HAZ1) (assay: qHTS Assay for Inhibitors of CDC-like Kinase 4 (ADP-Glo Assay) (AID 1771; also: nearly all actives have a fitted effect of over 70% in size)). Conditions: recombinant CLK4, ADP-Glo luminescence; series mostly up to 80 µM; activity change, negative = inhibition: at the top concentration.
Chain of UniProt Q9HAZ1 (Q9HAZ1 whole entry, looked up): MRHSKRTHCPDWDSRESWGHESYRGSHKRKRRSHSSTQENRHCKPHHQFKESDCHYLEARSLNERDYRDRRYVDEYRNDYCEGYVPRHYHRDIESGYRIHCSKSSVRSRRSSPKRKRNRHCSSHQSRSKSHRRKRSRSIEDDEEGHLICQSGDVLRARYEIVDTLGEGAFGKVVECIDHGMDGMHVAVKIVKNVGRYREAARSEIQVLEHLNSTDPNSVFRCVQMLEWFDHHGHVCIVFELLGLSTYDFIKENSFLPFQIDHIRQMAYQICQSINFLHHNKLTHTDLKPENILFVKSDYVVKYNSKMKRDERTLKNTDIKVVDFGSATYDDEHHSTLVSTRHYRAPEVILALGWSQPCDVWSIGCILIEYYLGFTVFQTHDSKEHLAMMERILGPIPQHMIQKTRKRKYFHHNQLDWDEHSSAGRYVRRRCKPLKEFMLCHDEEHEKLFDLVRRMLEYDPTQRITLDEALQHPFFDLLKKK
Outline: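 Clk4 (25 nM) was incubated 1 hr at room temperature with 100 uM RS repeat peptide and 1 uM ATP in buffer with 2 mM MgCl2, 0.5 mM EGTA, 2.5 mM DTT. ADP formed was quantified by ADP-Glo luminescence.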
With `COc1ccc2[nH]cc(CCNc3cc(-c4c(C)noc4C)ncn3)c2c1` the Potency was inconclusive [falling, partial curve].
`FC(F)(F)c1ccccc1-c1cc(NCc2cccs2)ncn1` was tested, and the Potency was inconclusive [falling, single point].
For `Cn1cc(-c2nc3cncnc3n(C3CC3)c2=O)c2ccccc21`, the Potency was inconclusive [falling, partial curve].
With `c1ccc(Nc2ncncc2-c2ccoc2)cc1` the Potency was inconclusive [falling, partial curve].
`CC(=O)NCCNc1ccnc(-c2ccccc2C)n1` was tested, and the Potency was inconclusive [falling, single point].
For `CCNc1ncc2nc(C)c(=O)n(-c3ccc(OC)cc3)c2n1`, the Potency was inconclusive [falling, partial curve].
With `COc1ccccc1-c1nccc(NCc2cccnc2)n1` the Potency was inconclusive [falling, single point].
With `CCNc1ncc2nc(C)c(=O)n(C)c2n1` the Potency was inconclusive [falling, partial curve].
With `O=c1cnc2cnc(Nc3ccccc3)nc2n1Cc1ccc(F)cc1` the Potency was inconclusive [falling, partial curve].
In the case of `COCCn1c(=O)c(C)nc2cnc(Oc3ccccc3)nc21`, the “activity change, negative = inhibition” value is reported as inactive: -1.07%.
`COc1ccc(CNc2ncncc2-c2ccc(N(C)C)cc2)c(OC)c1` was tested, and the Potency was inconclusive [falling, single point].
`c1ncc(-c2ccoc2)c(NC2CC2)n1` was tested, and the Potency was inconclusive [falling, single point].
With `CN(Cc1ccco1)c1cc(-c2cccnc2)ncn1` the Potency was inconclusive [falling, single point].
With `COc1ccc(Oc2ncc3ncc(=O)n(C)c3n2)cc1` the Potency was inconclusive [falling, partial curve].
With `Cn1c(=O)c(-c2cccs2)nc2cncnc21` the Potency was inconclusive [falling, partial curve].
`c1ccc(CNc2ncnc3ccc(-c4ccoc4)cc23)cc1` was tested, and the Potency was active: 12.6 µM.
For `c1ccc(CNc2nc(-c3ccoc3)nc3ccccc23)cc1`, the Potency was inconclusive [falling, partial curve].
In the case of `CC(=O)NCCNc1ccnc(-c2ccccc2C(F)(F)F)n1`, the Potency is reported as inconclusive [falling, single point].
For `O=c1cnc2cnc(N3CCOCC3)nc2n1C1CC1`, the Potency was inconclusive [falling, single point].
In the case of `COc1ccccc1-c1cncnc1NCc1cccs1`, the Potency is reported as inconclusive [falling, partial curve].
With `CCNc1ncc2nc(C)c(=O)n(C3CC3)c2n1` the Potency was inconclusive [falling, partial curve].
With `CN(C)c1ccc(-c2cncnc2Nc2ccccc2)cc1` the Potency was inconclusive [falling, single point].
In the case of `COc1ccc2[nH]cc(CCNc3ncncc3-c3c(C)noc3C)c2c1`, the Potency is reported as inconclusive [falling, single point].
In the case of `COc1cccc(Cn2c(=O)cnc3cnc(Oc4ccccc4)nc32)c1`, the Potency is reported as inconclusive [falling, single point].
With `COCCNc1cc(-c2c(C)noc2C)ncn1` the Potency was inconclusive [falling, single point].
`COc1cccc(Nc2ncc3nc(-c4cn(C)c5ccccc45)c(=O)n(CCC#N)c3n2)c1` was tested, and the Potency was inconclusive [falling, partial curve].
For `FC(F)(F)c1ccccc1-c1cc(NCc2ccccc2)ncn1`, the “activity change, negative = inhibition” value was inactive: -25.1%.
In the case of `COc1ccc(CNc2ccnc(-c3cccnc3)n2)c(OC)c1`, the Potency is reported as inconclusive [falling, single point].
With `Cc1noc(C)c1-c1ccc2ncnc(NC3CCNCC3)c2c1` the Potency was active: 25.1 µM.
`CN(C)c1ncc2nc(-c3ccccc3)c(=O)n(C[C@H]3CCCO3)c2n1` was tested, and the “activity change, negative = inhibition” value was inactive: -3.56%.
In the case of `COc1cccc(-c2cncnc2NCc2cccs2)c1`, the Potency is reported as inconclusive [falling, partial curve].
For `CCNc1ncc2nc(C)c(=O)n(Cc3cccs3)c2n1`, the Potency was inconclusive [falling, partial curve].
`CN(C)c1ccc(-c2cncnc2NCc2cccnc2)cc1` was tested, and the Potency was inconclusive [falling, partial curve].
`CN(C)C(=O)c1ccc(-c2cncnc2-n2ccnc2)cc1` was tested, and the Potency was inconclusive [falling, single point].
With `COc1ccc(CNc2ccnc(-c3ccccc3Cl)n2)c(OC)c1` the Potency was inconclusive [falling, single point].
For `COCCn1c(=O)c(-c2cccc(F)c2)nc2cncnc21`, the Potency was inconclusive [falling, single point].
For `COc1ccc(CNc2cc(-c3ccccc3Cl)ncn2)c(OC)c1`, the Potency was inconclusive [falling, single point].
With `COc1ccccc1CNc1ccnc(-c2ccccc2CN(C)C)n1` the “activity change, negative = inhibition” value was inactive: 5.8%.
In the case of `COc1ccccc1-c1nc(N(C)Cc2ccco2)c2ccccc2n1`, the Potency is reported as inconclusive [falling, single point].
In the case of `O=c1c(-c2cccs2)nc2cncnc2n1-c1ccccc1`, the Potency is reported as inconclusive [falling, single point].
